Data reported in the supplement of paper PMC7266297.
Structures can show the parent of a compound that is named as a salt. This is one part of the list. Most values come without repeats; read them as rough.

Legend:
KB-3-1 = assay: growth inhibition relative to DMSO control (SRB); cervical cancer cells: KB-3-1 is the parent and KB-V1 overexpresses MDR1; SRB is the sulforhodamine B stain; higher = more growth inhibition; conditions: 1 µM; 72 h
KB-V1 = assay: as above; conditions: 1 µM; 72 h
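Note: Read-out is SRB optical density at 490 nm, with the control being wells given 0.5% DMSO vehicle, and compound added one day after cells were plated.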

| Compound | growth inhibition (KB-3-1) [%] | growth inhibition (KB-V1) [%] |
| --- | --- | --- |
| CC(=O)Nc1cccc2c1c(Sc1ccc(Cl)cc1)c(C)n2CC(=O)O | < 0 | < 0 |
| O=c1cc(-c2ccc(O)cc2)oc2cc(O)cc(O)c12 [Apigenin] | < 0 | < 0 |
| COC(=O)C1=C(C)NC(C)=C(C(=O)OCCN2CCN(C(c3ccccc3)c3ccccc3)CC2)C1c1cccc([N+](=O)[O-])c1 (stereo not drawn) [Manidipine 2HCl] | 28.7 | 12.8 |
| COc1ccc(-c2cc3c(C)nc(N)nc3n([C@H]3CC[C@H](OCCO)CC3)c2=O)cn1 | 100 | 84.3 |
| O=C(O)c1cccc(-c2noc(-c3ccccc3F)n2)c1 [Ataluren (PTC124)] | 43.9 | 18.4 |
| N=C(N)Nc1ccc(C(=O)Oc2ccc3cc(C(=N)N)ccc3c2)cc1 [Nafamostat Mesylate] | 8.22 | 39.3 |
| O=C(O)C(Cc1ccccc1[N+](=O)[O-])=NNc1nc(-c2ccc(Cl)c(Cl)c2)cs1 (mixture of isomers) | < 0 | < 0 |
| O=C(NOCC(O)CO)c1cc(Br)c(F)c(F)c1Nc1ccc(I)cc1F (stereo not drawn) | 40.9 | 20.8 |
| C[C@H](Cc1cc2c(c(C(N)=O)c1)N(CCCO)CC2)NCCOc1ccccc1OCC(F)(F)F [Silodosin] | 31.8 | 14.7 |
| CC(=O)Oc1cc2c(s1)CCN(C(C(=O)C1CC1)c1ccccc1F)C2 (stereo not drawn) [Prasugrel] | 43.4 | 34.6 |
| COc1ccc(C2=N[C@@H](c3ccc(Cl)cc3)[C@@H](c3ccc(Cl)cc3)N2C(=O)N2CCNC(=O)C2)c(OC(C)C)c1 [Nutlin-3] | 14.3 | 35.3 |
| CC(=O)OCC(=O)NCCCOc1cccc(CN2CCCCC2)c1 [Roxatidine Acetate HCl] | 52 | 23 |
| CNC[C@H](O)c1ccc(O)c(O)c1 [Epinephrine Bitartrate] | < 0 | 6.38 |
| CC(C)(C)C#Cc1cc(N(C(=O)[C@H]2CC[C@H](C)CC2)[C@H]2CC[C@H](O)CC2)c(C(=O)O)s1 [VX-222 (VCH-222, Lomibuvir)] | 35 | 11 |
